This is an account of results in paper PMC5836133.

The other results are listed elsewhere or left out. At the low end of the ranking the order means little.

The test has as its system T1, GST-NbGlk1(82-244).
T1 sequence: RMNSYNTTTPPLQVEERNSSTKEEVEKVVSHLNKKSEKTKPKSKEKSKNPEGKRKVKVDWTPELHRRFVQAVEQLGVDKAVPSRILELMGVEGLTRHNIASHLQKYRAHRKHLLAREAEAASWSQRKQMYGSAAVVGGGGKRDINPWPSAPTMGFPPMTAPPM
As to the kind of experiment: protein-binding microarray.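 Also: rank-based score ranging −0.5 to +0.5 with E above 0.45 taken as significant binding.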 As to conditions: NbGlk1 is a Golden2-like transcription factor of Nicotiana benthamiana; high values mean tight binding; most listed sequences are background and not binding sites; double strand, one strand shown.
Regarding AACAAGCT, the binding signal was -0.147 E-score. As for ATGTCCAC, the figure is 0.0171 E-score. Under AGTAGATG stands 0.0733 E-score; under CACGAAGC, -0.154 E-score; under AATATACT, 0.222 E-score.

AAGTGGAG gave a binding signal of -0.22 E-score. Under ACGTCAGT stands -0.199 E-score. As for AGGAAGGG, the figure is -0.214 E-score.

In turn, ACGAGGGC came in with a binding signal of -0.247 E-score. Under AGGTTTAC stands -0.163 E-score. Regarding AGAAGCGC, the binding signal is -0.197 E-score.

The sequence AAAGTCGA showed a binding signal of -0.000562 E-score. On to AGTGGGGA, for which the binding signal was -0.154 E-score.

Regarding AATCTTCG, the binding signal came out at 0.404 E-score. Under ACTAATCT stands 0.0571 E-score. In turn, AGCCAGTG displayed a binding signal of -0.218 E-score.

AGCGTATG displayed a binding signal of 0.0231 E-score. Under AGACTCGA stands -0.174 E-score; under ATGCTAAC, -0.0521 E-score. Under AAGGCTGT stands -0.295 E-score. As for ACGCTGCT, the figure is -0.0365 E-score; as for ACGTAAGA, 0.08 E-score. For the sequence ACCAACGA, the binding signal was -0.0707 E-score. For the sequence ACACGAAA, the binding signal was determined as 0.16 E-score. As for AGAAGGGA, the figure is -0.0546 E-score; as for ATCACGTG, 0.196 E-score.

In the case of ATTGCGGG, the binding signal turned out to be 0.26 E-score. As for AACAAGGA, the figure is 0.00345 E-score; as for ATCGCGTC, 0.285 E-score; as for ATCTCGGG, 0.242 E-score. Under AAGCTTGC stands -0.0998 E-score.

ACAGCTTG registered a binding signal of -0.215 E-score. ACCCTTCG had a binding signal of -0.213 E-score. As for AATATCGA, the figure is 0.326 E-score; as for AAGCTCCA, -0.203 E-score; as for AGGTTCTA, -0.116 E-score. Under AGACTCAT stands -0.0737 E-score; under ACCCACAA, -0.0311 E-score; under ACGATGAC, -0.0642 E-score. The sequence AAATCGTT registered a binding signal of 0.248 E-score. ATAAGGGG yielded a binding signal of -0.164 E-score.

Take AGAGTACA: the binding signal was -0.0623 E-score. In turn, ATTCATAA came in with a binding signal of 0.155 E-score. Under AGTCAATG stands -0.222 E-score; under AAAACCTC, -0.111 E-score; under ACCAAAAT, 0.245 E-score. Under AGGCCAAT stands -0.105 E-score; under ACCGCGTG, -0.194 E-score; under ACTCAGGG, -0.194 E-score.

As for AATCCTCG, the binding signal worked out at 0.345 E-score. As for AGCGGGTC, the figure is -0.225 E-score. ACCTATGG registered a binding signal of -0.172 E-score. For the sequence ATGCCTGA, the binding signal stood at 0.0134 E-score.

AAAAACTG had a binding signal of -0.0658 E-score. Under ACTCCTGC stands -0.272 E-score. Regarding ACGCAACT, the binding signal came out at 0.0194 E-score. Under ATCAGGAG stands 0.0761 E-score; under ACTCTAAT, 0.138 E-score; under AACCGATC, 0.0318 E-score.

In the case of AGGTAGAC, the binding signal is -0.19 E-score. AGCTGTTC: the binding signal was -0.00371 E-score. As for CAAGAGCC, the figure is -0.135 E-score; as for ACCGGCCC, -0.317 E-score. ATCTGTCA registered a binding signal of 0.145 E-score. Under AGCCACCC stands -0.252 E-score; under ATAACTCA, 0.0337 E-score; under AAGGTTAA, -0.00675 E-score. On to ACCTCCAC, for which the binding signal is -0.26 E-score.

ACCTCCGG came in with a binding signal of -0.219 E-score.

In the case of ATTCCCTC, the binding signal turned out to be 0.372 E-score.

The sequence AGGATTGG registered a binding signal of 0.0414 E-score. As for AGCGAAGG, the figure is -0.309 E-score; as for ACTTACCG, -0.116 E-score; as for AAACCTGA, 0.00404 E-score. Under CACCGCTG stands -0.239 E-score. For CACTACGG, the binding signal was -0.0209 E-score.

Consider AGTAATAG, for which the binding signal was -0.0642 E-score. CAAGCACG had a binding signal of -0.114 E-score.

Regarding ATCTAGCC, the binding signal worked out at 0.191 E-score. For ACCGTGTA, the binding signal was -0.0278 E-score. Under ACAGGCAG stands -0.109 E-score. In turn, ACTTGGCT registered a binding signal of -0.026 E-score. Under AGAACCGA stands 0.132 E-score; under AGCGCGGC, -0.19 E-score. As for ACCGGCAG, the figure is -0.215 E-score. The sequence ACCAGACG yielded a binding signal of -0.184 E-score. Under ACGCAGGC stands -0.307 E-score; under AACGTTGT, 0.00292 E-score.

In the case of AAGTCCAC, the binding signal is -0.248 E-score.

Turning to AAGAGCAG, the binding signal is -0.0514 E-score. In the case of ATGGCTAA, the binding signal is -0.0408 E-score. ATACAGAC displayed a binding signal of -0.0164 E-score. Consider ATCAGATG, for which the binding signal was determined as 0.0928 E-score.

AGAGAATG gave a binding signal of -0.000831 E-score. AACTTCAA returned a binding signal of 0.0509 E-score. AGTACCCC displayed a binding signal of -0.293 E-score. As for ACTGTAGA, the figure is 0.0528 E-score; as for AAGGTGAT, 0.0735 E-score; as for AATGTAGC, -0.124 E-score. With AACTGGGT, the binding signal was -0.169 E-score. As for CAGAGGGG, the figure is -0.212 E-score; as for AAAAACAA, 0.143 E-score; as for CAAGGAAC, -0.168 E-score. In the case of AACGGAAC, the binding signal was -0.124 E-score.

CAATCATA displayed a binding signal of 0.255 E-score. As for ACTCCGAC, the figure is -0.178 E-score. As for AGGAGGTA, the figure is -0.0744 E-score; as for CACCCACG, -0.0445 E-score. As to ACTTACTC, the binding signal is -0.0421 E-score. For ACGAGGAG, the binding signal is -0.157 E-score. The sequence ACCACGGG displayed a binding signal of -0.164 E-score. AAGCATGG registered a binding signal of -0.2 E-score.

For AGCGTACC, the binding signal is -0.176 E-score. As for ACCTCACG, the figure is -0.156 E-score. CACGAACC showed a binding signal of -0.0497 E-score. In turn, ACTCGGTG had a binding signal of -0.116 E-score.

For the sequence CAGCGTGC, the binding signal was -0.17 E-score.

Take ACTGCGCA: the binding signal is -0.169 E-score. Sequence AGAATGGA had a binding signal of -0.044 E-score. As for ATCAGACC, the figure is 0.0181 E-score. In turn, ATCTTCTG returned a binding signal of 0.347 E-score. As for CAACTATG, the binding signal came out at 0.101 E-score. Under ACGCCGCT stands -0.157 E-score; under AATCTAGG, 0.433 E-score. Under ACAGCAAT stands 0.168 E-score. Under ATACTCAC stands 0.143 E-score; under AATAACAA, 0.108 E-score. As to ACATGTCA, the binding signal was -0.154 E-score. ACAGGTCG registered a binding signal of -0.278 E-score. Take ACCAAGAC: the binding signal is -0.146 E-score.

For the sequence AATTATAC, the binding signal stood at 0.0776 E-score. As for ATAGTGTG, the figure is -0.0197 E-score.

AACCGGCG: the binding signal is -0.207 E-score. Under ACATGCGG stands -0.141 E-score; under AGAAGTAA, 0.0919 E-score; under CACATCCG, 0.0717 E-score. As for ATTCTCTA, the figure is 0.306 E-score. As for AAGGAACG, the figure is -0.121 E-score; as for ACGCTACT, -0.0327 E-score; as for ATAGGCCG, -0.0897 E-score. In turn, ACCTTGTG came in with a binding signal of -0.127 E-score. As to AGTACGGG, the binding signal is -0.105 E-score. As for AACATAAG, the figure is 0.0614 E-score; as for ACTAAACA, 0.0332 E-score; as for ATTTATGG, 0.0213 E-score. On to ACCCAGCG, for which the binding signal was -0.203 E-score.

In turn, ATAGTGGG registered a binding signal of -0.121 E-score. In turn, ACGCGCCT displayed a binding signal of -0.193 E-score. For AGCTCGTA, the binding signal is -0.0695 E-score. As for AAATGGTG, the figure is -0.106 E-score; as for ATAGTTTA, 0.0514 E-score; as for AGTACGAT, 0.184 E-score. Turning to ATCGATTA, the binding signal came to 0.207 E-score. As for AGGCTCGC, the figure is -0.34 E-score.

ACTCCATC: the binding signal was -0.111 E-score. As for CACGTTTC, the figure is -0.0639 E-score; as for ATTTATAC, 0.229 E-score; as for CACGGACA, -0.109 E-score. Under ACAGTTGA stands -0.0168 E-score. In the case of ATCGGGAC, the binding signal stood at 0.0949 E-score. As for ACTCAGGC, the figure is -0.158 E-score.

The sequence ATTTTTGG showed a binding signal of 0.195 E-score. As for AATGAGCG, the figure is -0.193 E-score; as for CACAGAAA, 0.0404 E-score; as for ATGCTTGG, -0.0554 E-score. As for AGCGTTCC, the figure is -0.21 E-score. The sequence AACGCACT gave a binding signal of -0.0501 E-score.

Sequence AAGTTCGG returned a binding signal of -0.121 E-score. Sequence AGGTGGAA registered a binding signal of -0.0781 E-score. On to AGCCTCCC, for which the binding signal is -0.373 E-score. Under ATACCATG stands -0.0243 E-score. With ACTGAGCA, the binding signal is -0.258 E-score.
